{
  "source": "patent US5112808A",
  "about": "“Alkylated hormone-releasing peptides and method of treatig mammals therewith” (American Cyanamid Company, priority 1988, dated 1992)",
  "key": {"[1]": {"tested_on": "plasma growth hormone", "assay": "Evaluation of peptides in vivo in sheep: plasma GH levels in lambs injected intravenously at 100 ng/kg", "description": "The purpose of this experiment is to compare the GH releasing activities of several GRF analogs selected for expected high potency and the lack of either a terminal amide or a D-amino acid. The analogs to be compared in wether lambs at 100 ng/kg (IV) are tri-isopropyl-GRF(1-29)-NH2, tri-isopropyl-GRF(1-29)-OH, tri-isopropyl-GRF(1-40)OH, D-ala^2, arg^12,21 -GRF (1-29)-OH, D-ala^2, arg^12,21 -GRF(1-29)-NH2, GRF(1-40)-OH and GRF(1-29)-NH2\nA balanced 8×8 Latin square design will be used to test the following 8 treatments:\nSheep are maintained in individual metabolism cages at all times. Each sheep has previously received an indwelling jugular cannula which is flushed daily with heparinized (400-800 IU/ml) sterile saline to help maintain […].\nAll compounds are solubilized at 5 ug/ml in sterile saline containing 1% Tween 80 and injected intravenously at 100 ng/kg. Control lambs receive equal volumes of the vehicle only. The drugs are prepared each day just prior to injection to minimize sticking to the vials.\nBlood is collected in heparinized tubes at 15 minute intervals for one hour prior to and for two hours after the treatments are administered. Plasma samples are removed by centrifugation and frozen.\nBlood samples are taken from each animal at 15 minute intervals for 3 hours each day during the 8 day trial period. The samples are analyzed for plasma growth hormone (ng/ml). Data obtained are reported below as near values obtained for each treatment."}, "[2]": {"tested_on": "growth hormone release", "assay": "Peptide effects on growth hormone release in the pentobarbital-anesthetized rat (plasma GH by RIA)", "assay_type": "in vivo", "settings": "for PLASMA GH: 15 min", "description": "In this evaluation, the procedures described by W. A. Murphy et al., Endocrinology 109: 491-495 (1980), were employed.\nIn growth hormone (GH) experiments, male rats (Charles Rivers) were anesthetized with NEMBUTAL® (6 mg per 100 g body weight) which also served to maintain stimulated plasma GH levels. Exactly 30 minutes after the rats were anesthetized, 0.5 mL of saline or the test peptide in saline was administered as a SC bolus. A 1 mL blood sample was drawn from the jugular vein 15 minutes after the injection of the peptide in saline or at the indicated times in the time course assay (p26). GH levels were determined using NIADDKD rat GH RIA components."}},
  "note": "At least one peptide structure holds a part that was inferred or is arguable (an end, a ring closure or a residue). *1 amine or outer side, *2 acyl side, *3 side chain or, on linkers, in order; H or OH if unused. Where a SMILES comes first, the peptide text is derived from it. [ ]: non-standard residue; d: D form. X2 = CCCCC(CCCC)N([C@@H](Cc1ccc(O)cc1)C(=O)[*:2])[*:1]; X3 = CCN([C@@H](Cc1ccc(O)cc1)C(=O)[*:2])[*:1]; Nle = CCCC[C@H](N)C(=O)O",
  "data": [
    {"smiles": "CC[C@H](C)[C@H](NC(=O)[C@H](C)NC(=O)[C@H](CC(=O)O)NC(=O)[C@@H](C)NC(=O)[C@@H](N)Cc1ccc(O)cc1)C(=O)N[C@@H](Cc1ccccc1)C(=O)N[C@H](C(=O)N[C@@H](CC(N)=O)C(=O)N[C@@H](CO)C(=O)N[C@@H](Cc1ccc(O)cc1)C(=O)N[C@@H](CCCNC(=N)N)C(=O)N[C@@H](CCCNC(=N)N)C(=O)N[C@H](C(=O)N[C@@H](CC(C)C)C(=O)NCC(=O)N[C@@H](CCC(N)=O)C(=O)N[C@@H](CC(C)C)C(=O)N[C@@H](CO)C(=O)N[C@@H](C)C(=O)N[C@@H](CCCNC(=N)N)C(=O)N[C@@H](CCCNC(=N)N)C(=O)N[C@@H](CC(C)C)C(=O)N[C@@H](CC(C)C)C(=O)N[C@@H](CCC(N)=O)C(=O)N[C@@H](CC(=O)O)C(=O)N[C@H](C(=O)N[C@@H](CCSC)C(=O)N[C@@H](CO)C(=O)N[C@@H](CCCNC(=N)N)C(N)=O)[C@@H](C)CC)C(C)C)[C@@H](C)O", "note": "[D-ala^2,arg^12,21 -GRF(1-29)-NH2, D-ala^2, arg^12,21 -GRF(1-29)-NH2] (H-Y[dA]DAIFTNSYRRVLGQLSARRLLQDIMSR-NH2)", "values": [
      {"measurement": "Plasma GH Peak", "setting": "[1]; 100 ng/kg IV, control 12.2", "result": 62.8, "unit": "ng/mL"},
      {"measurement": "Plasma GH Post-inj Mean", "setting": "[1]; 100 ng/kg IV, two hours after treatment, means of 8 samples/animal from 8 animals, control 8.7", "result": 19.1, "unit": "ng/mL"},
      {"measurement": "Plasma GH Pre-inj Mean", "setting": "[1]; before IV injection of 100 ng/kg, means of 5 samples/animal from 8 animals, control 8.4", "result": 8.9, "unit": "ng/mL"}
    ]},
    {"smiles": "CCCCC(CCCC)N[C@@H](Cc1ccc(O)cc1)C(=O)N[C@@H](C)C(=O)N[C@@H](CC(=O)O)C(=O)N[C@@H](C)C(=O)N[C@H](C(=O)N[C@@H](Cc1ccccc1)C(=O)N[C@H](C(=O)N[C@@H](CC(N)=O)C(=O)N[C@@H](CO)C(=O)N[C@@H](Cc1ccc(O)cc1)C(=O)N[C@@H](CCCNC(=N)N)C(=O)N[C@@H](CCCCN)C(=O)N[C@H](C(=O)N[C@@H](CC(C)C)C(=O)NCC(=O)N[C@@H](CCC(N)=O)C(=O)N[C@@H](CC(C)C)C(=O)N[C@@H](CO)C(=O)N[C@@H](C)C(=O)N[C@@H](CCCNC(=N)N)C(=O)N[C@@H](CCCCN)C(=O)N[C@@H](CC(C)C)C(=O)N[C@@H](CC(C)C)C(=O)N[C@@H](CCC(N)=O)C(=O)N[C@@H](CC(=O)O)C(=O)N[C@H](C(=O)N[C@@H](CCSC)C(=O)N[C@@H](CO)C(=O)N[C@@H](CCCNC(=N)N)C(N)=O)[C@@H](C)CC)C(C)C)[C@@H](C)O)[C@@H](C)CC", "note": "[N^α -5-nonylTyr^1, [N^α -5-nonyl-Tyr^1]GRF(1-29)NH2] (H-[X2]ADAIFTNSYRKVLGQLSARKLLQDIMSR-NH2)", "values": [
      {"measurement": "PLASMA GH", "setting": "[2]; dose 0.2 ug/100 g BW SC, saline control 63 ± 8", "result": "46 ± 4", "unit": "ng/mL"},
      {"measurement": "PLASMA GH", "setting": "[2]; dose 2 ug/100 g BW SC, saline control 63 ± 8", "result": "85 ± 31", "unit": "ng/mL"},
      {"measurement": "PLASMA GH", "setting": "[2]; dose 20 ug/100 g BW SC, saline control 63 ± 8", "result": "104 ± 12", "unit": "ng/mL"},
      {"measurement": "POTENCY", "setting": "[2]; relative to GRF(1-29)NH2 (=1), estimated by single dose comparisons to pooled standard responses", "result": "< 0.5"}
    ]},
    {"smiles": "CCCC[C@H](NC(=O)[C@@H](NC(=O)[C@H](CC(=O)O)NC(=O)[C@H](CCC(N)=O)NC(=O)[C@H](CC(C)C)NC(=O)[C@H](CC(C)C)NC(=O)[C@H](CCCCN)NC(=O)[C@H](CCCNC(=N)N)NC(=O)[C@H](C)NC(=O)[C@H](CO)NC(=O)[C@H](CC(C)C)NC(=O)[C@H](CCC(N)=O)NC(=O)CNC(=O)[C@H](CC(C)C)NC(=O)[C@@H](NC(=O)[C@H](CCCCN)NC(=O)[C@H](CCCNC(=N)N)NC(=O)[C@H](Cc1ccc(O)cc1)NC(=O)[C@H](CO)NC(=O)[C@H](CC(N)=O)NC(=O)[C@@H](NC(=O)[C@H](Cc1ccccc1)NC(=O)[C@@H](NC(=O)[C@H](C)NC(=O)[C@H](CC(=O)O)NC(=O)[C@H](C)NC(=O)[C@H](Cc1ccc(O)cc1)NCC)[C@@H](C)CC)[C@@H](C)O)C(C)C)[C@@H](C)CC)C(=O)N[C@@H](CO)C(=O)N[C@@H](CCCNC(=N)N)C(N)=O", "note": "[N^α EtTyr^1,Nle^27, [N^α -Ethyl-Tyr^1,Nle^27]GRF(1-29)NH2] (H-[X3]ADAIFTNSYRKVLGQLSARKLLQDI[Nle]SR-NH2)", "values": [
      {"measurement": "PLASMA GH", "setting": "[2]; dose 4 ug/100 g BW SC, saline control 246 ± 36", "result": "2031 ± 294", "unit": "ng/mL"},
      {"measurement": "PLASMA GH", "setting": "[2]; dose 10 ug/100 g BW SC, saline control 246 ± 36", "result": "3878 ± 288", "unit": "ng/mL"},
      {"measurement": "POTENCY", "setting": "[2]; relative to GRF(1-29)NH2 (=1) as standard, by 4point assay (95% CI limits in parentheses)", "result": 5.0}
    ]}
  ]
}
